Data published in PubChem BioAssay AID1508624 (National Center for Advancing Translational Sciences (NCATS), 2021).
Screen size: about 48,000 compounds; about 120 (0.25%) were called active. Inconclusive results (about 4%) are left out. The call rests on the fitted dose curve; in most records, active means well fitted activation curve with a large enough effect; inconclusive means small, poorly fitted or top-dose-only effect, or another doubt; inactive means no such curve, though single readings can be large or run the other way. The list shows a part of the results.

Experiment: Primary qHTS for Identification of Small Molecule Activators of Huntingtin-Antisense Promoter Activity; further: nearly all actives have a fitted effect of over 55% in size
Conditions: HEK293 HTT-AS promoter firefly luciferase reporter (activity 0% = vehicle and -100% = no light), 24 h; series mostly up to 57.5 µM; activity change, positive = activation: at the top concentration
Summary of the method: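 Quantitative HTS used concentration series of up to 57.5 uM final on HEK293 luciferase reporter cells, 24 h at 37 degrees C. Readout was Dual-Glo firefly luminescence.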

Activity change, positive = activation, inactive:
CCOC(=O)c1c(C)[nH]c(C)c1S(=O)(=O)N1CCC(C(=O)N2CCN(c3cc(C)ccc3C)CC2)CC1 -48.5%
CC1CCN(S(=O)(=O)c2ccc3c(c2)N(CC(=O)NCCc2ccc(Cl)cc2)C(=O)CO3)CC1 -33.2%
Cc1ccc(NC(=O)CCCn2c3ccccc3c(=O)c3cc(C)ccc32)c(Br)c1 -31.5%
O=C(CSc1ncc(S(=O)(=O)c2ccc(Cl)cc2)c(=O)[nH]1)Nc1ccc2c(c1)OCCO2 -9.85%
COc1cccc(C(=O)NCC(=O)OCc2cc(=O)n3nc(C)sc3n2)c1 -4.24%
CCCC(=O)Nc1nnc(SCc2cc(=O)c3ccc(C)cc3[nH]2)s1 -52.5%
CCCCNC(=O)C1=CC(c2ccc3c(c2)OCO3)=NS(=O)(=O)N1C -12.5%
CCCCCC(N)=O 4.8%
COc1ccc2c(Sc3ccccc3)c(C(=O)NCc3ccc(OC(C)C)cc3)[nH]c2c1 -5.56%
CN1CCN(c2cccc(Nc3nc4c(-c5ccc(S(C)(=O)=O)cc5)cccn4n3)c2)CC1 -14%
COc1cccc(CNC(=O)c2cc3n(n2)CCCN(Cc2ccc(C)cc2)C3=O)c1OC -14.7%
COc1ccc(-c2nc3ccc(NS(=O)(=O)c4ccccc4)cc3o2)cc1 -8.63%
CCOc1ccc(-n2c(SCC(=O)NCc3ccco3)nc3c([nH]c4ccccc43)c2=O)cc1 -30.7%
Cc1cccc(-c2nnc3n(CCc4ccccc4)c(=O)c4ccccc4n23)c1 0%
Cc1ccc(NC(=O)c2sc(-n3nc(C)c(Cc4ccc(Cl)cc4)c3C)nc2C)cc1 5.34%
Cc1ccc(-n2c3nc(=O)[nH]c(=O)c-3cc3c(Cl)cccc32)cc1 -16.5%
Cc1ccc(C)c(NC(=O)N2CCN(C)c3ncccc32)c1 -27.5%
Cc1ccc(Cn2ccnc2SCC(=O)Nc2ccc3c(c2)OCO3)cc1 -4.96%
Oc1ccc(O)cc1 -22%
CCN(Cc1ccccc1)C(=O)Cn1c(=O)n(-c2ccc(OC)cc2OC)c(=O)c2c(C)c(C)sc21 0.426%
CCOc1ccc(NC(=O)c2c(NC(=O)Cc3ccccc3)sc3c2CCCC3)cc1 -29.1%
COc1ccc(Cl)cc1NC(=O)Cn1c(=O)n(Cc2ccco2)c(=O)c2ccc(C(=O)NC3CCCC3)cc21 -11.8%
CCOc1ccc(CNC(=O)c2ccc(-c3nc(CSc4ccc(C)cc4)c(C)o3)cc2)cc1 -20%
CCCCn1c2ccccc2c2nnc(SCC(=O)Nc3ccc(NC(C)=O)cc3)nc21 -1.03%
Cc1oc2ccc(O)c(CN(C)Cc3ccccc3)c2c1C(=O)Nc1cccc(Cl)c1C -48.3%
COc1cc2nc(N3CCN(C(=O)C4CCCO4)CC3)nc(N)c2cc1OC (stereo unspecified)
CCc1nc2nc(C)cc(Nc3ccc(Br)cc3F)n2n1 -19.3%
Cc1ccccc1NC(=O)c1c2c(nc3ccccc13)C(=O)N(C1CCCCC1)C2 -3.52%
COc1ccccc1-c1cc(C(F)(F)F)nc(S(=O)(=O)CCCC(=O)Nc2cc(C)ccc2O)n1 5.36%
Cc1ccc2c(=O)c(C(=O)c3ccc(F)cc3)cn(CC(=O)NC3CCCCC3)c2n1 -10.4%
CC(=O)Nc1ccc(S(=O)(=O)Nc2ccc(-c3cn4c(C)csc4n3)cc2)cc1 -39.8%
COC(=O)c1cc(S(=O)(=O)N2CCN(c3cccc(C)c3)C(C)C2)c[nH]1 (stereo unspecified) -17.4%
COCCNC(=O)CCC(=O)N1Cc2cccc(OC)c2Oc2ncccc21 -6.04%
CCSc1nnc2c(n1)OC(c1ccc(C)cc1)N(C(C)=O)c1ccccc1-2 (stereo unspecified) -0.327%
COc1ccc(CNC(=O)CCCN2C(=O)CSc3c2c(C)nn3-c2ccccc2)c(OC)c1 -14.2%
Cc1ccc(-c2[nH]c3ccccc3c2SCCNC(=O)c2ccc(S(=O)(=O)N(C)C)cc2)cc1 -40.7%
COc1ccc(Cl)cc1NC(=O)CCS(=O)(=O)c1cccc2nonc12 -19.3%
Cc1ccc(NC(=O)C(=O)NCC(c2cccnc2)N2CCOCC2)cc1Cl (stereo unspecified) -21.1%
Cc1c(CC(=O)N2CCCCC2)c(=O)oc2c(C)c3occ(C(C)(C)C)c3cc12 -6.77%
CCCCOc1ccc(C(C)NC(=O)c2cccc(Nc3nc4ccccc4n4nnnc34)c2)cc1 (stereo unspecified) -4.27%
Cc1ccc(CN2CCSc3ccc(C(=O)NCCc4ccccc4)cc32)cc1 18%
COc1ccc(Cl)cc1NC(=O)C1CCN(c2nnc(C)c3c(C)n(-c4ccccc4)nc23)CC1 -0.417%
O=c1n(Cc2cccc(F)c2)c2ccccc2c2nc(-c3ccccc3)nn12 -17.1%
CN(C)C=NC(=O)c1cc2c(n(-c3ccccc3)c1=O)CC(C)(C)CC2=O -20.2%
Oc1ccccc1C=NCc1ccccc1 3.64%
COc1cccc(CSc2nc3n(n2)C(c2cccc(F)c2)C(C(=O)Nc2ccccc2C)=C(C)N3)c1 (stereo unspecified) 3%
CN(C)c1cc2c(cc1NS(=O)(=O)c1ccccc1)n(C)c(=O)n2C 3.03%
Cc1cccc(N2CCN(C(=O)c3ccc(CS(=O)c4cccc(Cl)c4)o3)CC2)c1C (stereo unspecified) -49.7%
COc1ccc(CN(C(=O)Nc2cccc(Cl)c2)c2ccccn2)cc1OC -1.82%
COc1ccc(NC(=O)CCCSc2nc(-c3ccco3)cc(C(F)(F)F)n2)c(OC)c1 -15.4%
COc1cccc(OCc2nc3ccccc3n2Cc2ccccc2C)c1 -60.3%
CCOc1ccc(N(CC)C(=O)C2CCN(S(=O)(=O)c3cccc4nonc34)CC2)cc1 -0.291%
COc1cc(NC(=O)Cn2nnc(-c3ccc(C(F)(F)F)cc3)n2)c(C(=O)O)cc1OC -5.05%
COc1ccc(CCC(=O)NC2CC(=O)N(c3cccc(F)c3)C2)cc1 (stereo unspecified) -2.75%
CCC(=O)n1nc(-c2cccnc2)nc1NCc1ccc(F)cc1 14.2%
O=C(Cn1c(=O)oc2cc(S(=O)(=O)NCc3ccccc3)ccc21)Nc1ccc(F)c(Cl)c1 -28.2%
O=C(O)c1ccccc1NCCc1ccccc1 48.4%
CCc1ccc(NC(=O)Cn2ccn(Cc3ccccc3OC)c(=O)c2=O)cc1 -22.7%
Cc1ccc(NC(=O)c2c(C)oc3ncnc(N4CCCCC4)c23)cc1Cl -24.7%
Cc1ccc(-n2nc(C)c3c(C)cc(=O)n(CC(=O)N4CCCc5ccccc54)c32)cc1 -20.6%
CCn1cc(S(=O)(=O)c2cccc(Cl)c2)c(=O)c2cc(F)c(N3CCC(C)CC3)cc21 -13.3%
COc1cccc(-c2ccc3c(N)c(C(=O)c4ccc(Br)cc4)sc3n2)c1 -28.6%
COc1ccc(C)cc1NC(=O)CCc1c(C)nn(-c2ccc(N3CCOCC3)nn2)c1C 1.69%
O=C(Cc1ccc(Cl)cc1)Nc1nnc2n1CCS2 0.52%
O=C(COCc1cc(-c2cccs2)on1)NCc1ccc(Cl)cc1 -9.19%
COc1cccc(CNC(=O)Cc2csc3ccccc23)c1OC 8.73%
Cc1cc(C)c(NS(=O)(=O)c2ccc(-c3cnc(C4CC4)o3)cc2)c(C)c1 -50.2%
COc1ccc(NC(=O)C(=O)NCC2(c3ccc(OC)c(OC)c3)CCCC2)cc1 -15.3%
Cc1ccc(CSc2oc(-c3cccs3)nc2S(=O)(=O)c2ccccc2)cc1 6.83%
COc1ccccc1N1CCN(c2ncc3c(n2)CCN(Cc2ccccc2F)C3)CC1 -14.2%
CC(=O)c1ccc(N2CCN(c3ncnc4c3nc3n4CCCC3)CC2)cc1 -31.9%
COc1ccc(CCNC(=O)Cc2c(C)c3c(cc(C)c4c(C)c(C)oc43)oc2=O)cc1 -3.06%
C#C[C@]1(O)CC[C@H]2[C@@H]3[C@H](C)CC4=C(CCC(=O)C4)[C@H]3CC[C@@]21C -20.1%
CCOC(=O)N1CCc2c(sc3c2c(=O)n(Cc2ccccc2)c(=O)n3Cc2ccccc2Cl)C1 -10.8%
Cc1ccc2ncc(C(=O)N3CCN(c4ccccc4F)CC3)c(=O)n2c1 0%
COc1cccc(NC(=O)C2CCN(c3nnc(C)c4c(C)n(-c5ccccc5)nc34)CC2)c1 -23.7%
Cc1ccc(S(=O)(=O)N(CC(=O)NCCc2ccc(Cl)cc2)c2ccccc2C)cc1 -12.6%
CCc1ccc(OCC(=O)N(Cc2ccc(C)o2)C2CCS(=O)(=O)C2)cc1 (stereo unspecified) -12.3%
COc1ccc(CCNC(=O)c2cnn(-c3ccc(F)cc3)c2C2CCN(C(=O)OC(C)(C)C)CC2)c(OC)c1 -26.2%
CCc1ccccc1NC(=O)N1CCc2c([nH]c3ccccc23)C1c1ccc(C)cc1 (stereo unspecified) -29.1%
COc1ccc(NC(=O)c2c(NC(=O)COc3ccccc3)sc3c2CCC(C)C3)cc1 (stereo unspecified) -7.06%
O=C(Nc1ccccc1C(F)(F)F)c1ccc2oc(=O)c(S(=O)(=O)c3ccc(F)cc3)cc2c1 -92.9%
O=C(NCCC1=CCCCC1)c1ccc2c(=O)n3nc(Nc4ccccc4)sc3nc2c1 -8.13%
COCCCNC(=O)c1cn(CCOC)c(=O)c2c1c1ccccc1n2C -14.2%
COc1ccc(-c2noc(CCC(=O)Nc3ccc(C(F)(F)F)cc3)n2)cc1 -21.9%
Cc1ccccc1CNC(=O)CN1C(=O)CSc2ccc(S(=O)(=O)N(C)C)cc21 1.01%
O=C(O)COc1nn(Cc2ccccc2)c2ccccc12 -2.02%
COc1ccc(S(=O)(=O)Nc2ccc(-c3cn4ccsc4n3)cc2)cc1C -7.3%
COc1ccc(CCN2C(=O)c3oc4cc(C)cc(C)c4c(=O)c3C2c2ccccc2F)cc1OC (stereo unspecified) -17.9%
COc1cccc(-c2nnc(SCC(=O)NC3CCCCC3)o2)c1 -14.3%
Cc1ccc(NC(=O)c2ccc(CN3C(=O)CCn4nc(C)cc43)cc2)c(Cl)c1 -14.7%
CCCn1c(=O)c2sccc2n2c(CCCC(=O)Nc3ccc(Oc4ccc(Cl)cc4)cc3)nnc12 -37.4%
CC(=O)c1ccc(NS(=O)(=O)c2ccc(-c3cc(C)no3)s2)cc1 -24.2%
CCOc1ccc(CCNC(=O)C2CCN(C(=O)c3cc4sccc4n3CC)CC2)cc1OCC -32.1%
Cc1c(NC(=O)c2cc(=O)c3ccccc3o2)c(=O)n(-c2ccccc2)n1C 19.4%
Cc1coc2c(C)c3oc(=O)c(CC(=O)NCCc4ccc(Cl)cc4)c(C)c3cc12 -4.48%
